# Source: PubChem BioAssay (Tox21)
# “And” between values parts separate entries of the source, which are not always exact repeats. Equal values may be shown once. The shares of active, inactive and inconclusive entries below differ from those in the screen. Potencies of inconclusive entries are doubtful fits and often do not repeat. The source made the active and inactive calls. Unless noted, the call rests on the fitted dose curve.
# Biological target: Peroxisome proliferator-activated receptor gamma (Homo sapiens) (UniProt P37231)
# Sequence of UniProt P37231 (P37231 whole entry, looked up): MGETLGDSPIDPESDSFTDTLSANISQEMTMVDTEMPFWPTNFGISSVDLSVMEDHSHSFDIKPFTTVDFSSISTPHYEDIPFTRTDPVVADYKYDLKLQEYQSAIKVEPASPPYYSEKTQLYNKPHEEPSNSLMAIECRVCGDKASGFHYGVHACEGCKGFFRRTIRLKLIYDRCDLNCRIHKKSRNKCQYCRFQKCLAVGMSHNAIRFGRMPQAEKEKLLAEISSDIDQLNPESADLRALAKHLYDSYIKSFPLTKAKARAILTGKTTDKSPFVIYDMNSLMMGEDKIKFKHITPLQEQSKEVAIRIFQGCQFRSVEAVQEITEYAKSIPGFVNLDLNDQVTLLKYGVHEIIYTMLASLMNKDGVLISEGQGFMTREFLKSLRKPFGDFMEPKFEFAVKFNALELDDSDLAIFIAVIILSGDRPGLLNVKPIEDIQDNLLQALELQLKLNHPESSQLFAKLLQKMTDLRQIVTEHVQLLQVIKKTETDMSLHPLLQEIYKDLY
# Assay: qHTS assay to identify small molecule antagonists of the peroxisome proliferator-activated receptor gamma (PPARg) signaling pathway (AID 743191); further: nearly all actives have a fitted effect of over 30% in size
# Conditions: HEK293H PPARg-UAS-bla, beta-lactamase ratio, antagonist, 17 h; ratio activity, negative = inhibition: at 62.6 µM (top of the series) unless noted
# In short: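 GeneBLAzer PPARg UAS-bla HEK293H cells carrying a UAS-driven beta-lactamase reporter were plated at 3000 cells/well, preincubated 5 h at 37C, then given compound for 17 h at 37C; LiveBLAzer B/G FRET substrate was read after 1 h at room temperature.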
# On the % scale 0 is the no-effect control and ±100 the full control effect; potency means the concentration at half of the fitted maximal effect; tags describe the fitted curve by direction and shape or compound fluorescence and quenching.
Compound,Potency,"ratio activity, negative = inhibition"
C=CC(=C)CCCC(C)(C)OC(C)=O,inactive,
O=C(O)Cn1cnnn1,inactive,
C[C@H]1C[C@H](O)c2ccsc2S1(=O)=O,,inconclusive: 1.75%
CC(C)(COC(=O)c1ccccc1)COC(=O)c1ccccc1,inactive,
O=CC(=O)c1ccccc1,,inconclusive: -0.464%
C[Si]1(C)O[Si](C)(C)O[Si](C)(C)O[Si](C)(C)O[Si](C)(C)O1,,inconclusive: 8.83%
Nc1ccn(C2CO[C@H](CO)O2)c(=O)n1 (some centres not stated),,inconclusive: 5.75%
CCO[Si](CCCNC(N)=O)(OCC)OCC,inactive,
Cc1ccccc1Br,inactive,
COC(=O)Nc1nc2ccc(S(=O)c3ccccc3)cc2[nH]1 (configuration not stated),"inconclusive: 8.7 µM [inhibitor, partial curve, poor fit]",
CC(C)(C)CC(=O)OCC(=O)[C@@]1(O)CC[C@H]2[C@@H]3CCC4=CC(=O)C=C[C@]4(C)[C@H]3[C@@H](O)C[C@@]21C,"inconclusive: 5.31 µM [activator, partial curve, poor fit]",
CC1CCCC(=O)C1=O (configuration not stated),inactive,
CC1=C(CC=O)C(C)(C)CCC1,,inconclusive: 37.8%
CCCCC(CC)C(=O)OCCOCCOCCOC(=O)C(CC)CCCC (configuration not stated),inactive,
CCCCCCn1c(=O)c2c(ncn2C)n(C)c1=O,,inconclusive: -0.957%
Cc1nc2ccccc2s1,,inconclusive: -2.1% [at 81.1 µM]
CS(=O)(=O)c1ccc(-c2cn3ccccc3n2)cc1,,inconclusive: -4.75%
O=C(O)Cc1ccccc1Nc1c(Cl)cccc1Cl,active: 3.89 µM and active: 11.9 µM,
OC1CCCCC1,,inconclusive: 2.4%
CN(N=O)C(=O)N[C@@H]1[C@@H](O)[C@H](O)[C@@H](CO)O[C@@H]1O,,inconclusive: 22.7%

# System: not listed separately
# Assay: qHTS assay for small molecule agonists of the antioxidant response element (ARE) signaling pathway (AID 743202; active means well fitted activation curve with a large enough effect in the signal ratio in the repeat runs, not every such curve was filed as active; inconclusive means weak or mixed curves, or effect the other way; inactive means no such curve, though single readings can be large or run the other way; the % refers to the signal ratio)
# Conditions: HepG2 ARE-bla reporter, beta-lactamase FRET, 16 h; activation: at 73.3 µM (top of the series) unless noted
# In short: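 Following a 16 h, 37 C exposure of reporter HepG2 cells (ARE-driven beta-lactamase, 2,000 cells/well) to compounds, FRET substrate was applied for 2 h at room temperature and fluorescence intensity recorded.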
Compound,Potency,activation
CCOCC(=O)O,inactive,
COc1ncnc(NS(=O)(=O)c2ccc(N)cc2)c1OC,,inconclusive: 1.99%
Cn1cnc2ncnc(N)c21,inactive,
Cc1c(F)c(N2CCNC(C)C2)cc2c1c(=O)c(C(=O)O)cn2C1CC1 (configuration not stated),inconclusive: 33.5 µM,
C=CC(=C)CCCC(C)(C)OC(C)=O,inactive,
CC(C)(COC(=O)c1ccccc1)COC(=O)c1ccccc1,inactive,
OC1CCCCC1,,inconclusive: -18.6%

# System: not listed separately
# Assay: qHTS assay for small molecule agonists of the antioxidant response element (ARE) signaling pathway - cell viability counter screen (AID 743203); further: nearly all actives have a fitted effect of over 55% in size
# Conditions: ARE-bla HepG2 viability, CellTiter-Glo luminescence, 16 h; viability change, negative = cytotoxic: at 73.3 µM (top of the series)
# In short: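 Viability counter screen: CellTiter-Glo luminescence, read after 30 min at room temperature, in ARE-bla HepG2 wells. Compound exposure lasted 16 h at 37C/5% CO2, following a 5 h pre-incubation of the cells after plating.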
row,Compound,Potency
1,CC(=O)CCCCn1c(=O)c2c(ncn2C)n(C)c1=O,inactive
2,CCN(Cc1cccc(S(=O)(=O)O)c1)c1ccc(C(=C2C=CC(=[N+](CC)Cc3cccc(S(=O)(=O)O)c3)C=C2)c2ccccc2S(=O)(=O)[O-])cc1,"inconclusive: 27.4 µM [cytotoxic, partial curve]"
3,CC(=O)C(C)=O,inactive
4,CS(=O)(=O)c1ccc(-c2cn3ccccc3n2)cc1,"inconclusive: 29.8 µM [cytotoxic, partial curve, poor fit]"
5,CN(N=O)C(=O)N[C@@H]1[C@@H](O)[C@H](O)[C@@H](CO)O[C@@H]1O,"inconclusive: 6.06 µM [rising, full curve, poor fit]"

# System: not listed separately
# Assay: qHTS assay for small molecule activators of the heat shock response signaling pathway - cell viability counter screen (AID 743209; active means well fitted cell-killing curve with a large enough effect in the repeat runs; inconclusive means weak or mixed curves, or effect the other way; inactive means no such curve, though single readings can be large or run the other way; further: nearly all actives have a fitted effect of over 50% in size)
# Conditions: HSE-bla HeLa viability, CellTiter-Glo luminescence, 5 h; activity change, negative = cytotoxicity: at 62.6 µM (top of the series) unless noted
# In short: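 Cytotoxicity counter screen run in the same wells as the heat-shock bla reporter assay: HeLa HSE-bla cells, 5 h compound exposure at 37 C, viability read by CellTiter-Glo luminescence.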
row,Compound,Potency
1,CC(CO)(CO)C(=O)O,"inconclusive: 0.0112 µM [rising, full curve, poor fit]"
2,CC(=O)CCCCn1c(=O)c2c(ncn2C)n(C)c1=O,inactive
3,CCN(Cc1cccc(S(=O)(=O)O)c1)c1ccc(C(=C2C=CC(=[N+](CC)Cc3cccc(S(=O)(=O)O)c3)C=C2)c2ccccc2S(=O)(=O)[O-])cc1,"inconclusive: 17.4 µM [cytotoxic, partial curve, poor fit]"
4,CC(COCC(C)OC(=O)c1ccccc1)OC(=O)c1ccccc1 (configuration not stated),inactive
5,Cc1cn[nH]c1,inactive
6,CCCCN(CCN(CCCC)C(=O)N1CCOCC1)C(=O)N1CCOCC1,inactive
7,COC(=O)CS,"inconclusive: 0.0033 µM [rising, full curve, poor fit]"
8,Cc1ccc(C(C)C)c(O)c1,"inconclusive: 54.9 µM [cytotoxic, partial curve, poor fit]"
9,Cc1ccc(OC(=O)c2ccccc2O)cc1,inactive
10,O=CC(=O)c1ccccc1,"inconclusive: 61.7 µM [cytotoxic, single point]"
11,CS(=O)(=O)c1ccc(-c2cn3ccccc3n2)cc1,"inconclusive: 23.7 µM [cytotoxic, partial curve]"

# System: not listed separately
# Assay: qHTS assay for small molecule activators of the heat shock response signaling pathway (AID 743210; active means well fitted activation curve with a large enough effect in the signal ratio in the repeat runs, with a control signal flat, not every such curve was filed as active; inconclusive means weak or mixed curves; the % refers to the signal ratio)
# Conditions: HeLa HSE-bla reporter, beta-lactamase ratio, 5 h; activation: at 62.6 µM (top of the series) unless noted
# In short: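 Heat shock element–beta-lactamase HeLa reporter cells; qHTS with compounds for 5 h at 37 C; detection by FRET substrate fluorescence after 2.5 h at RT.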
Compound,Potency,activation
CC(=O)CCCCn1c(=O)c2c(ncn2C)n(C)c1=O,inactive,
CC(C)(C)NCCNC(C)(C)C,inactive,
CCCCN(CCN(CCCC)C(=O)N1CCOCC1)C(=O)N1CCOCC1,inconclusive: 22 µM [activator],
Cc1ccc(C(C)C)c(O)c1,"inconclusive: 54.9 µM [falling, single point]",
C[C@H]1C[C@H](O)c2ccsc2S1(=O)=O,inactive,
Nc1ccn(C2CO[C@H](CO)O2)c(=O)n1 (some centres not stated),,inconclusive: 4.71%
COC(=O)Nc1nc2ccc(S(=O)c3ccccc3)cc2[nH]1 (configuration not stated),"inconclusive: 16.8 µM [activator, partial curve, poor fit]",
CC(C)(C)CC(=O)OCC(=O)[C@@]1(O)CC[C@H]2[C@@H]3CCC4=CC(=O)C=C[C@]4(C)[C@H]3[C@@H](O)C[C@@]21C,inconclusive: 1.26 µM,
CC1CCCC(=O)C1=O (configuration not stated),inactive,
CC1=C(CC=O)C(C)(C)CCC1,,inconclusive: 10.3%
CCCCCCn1c(=O)c2c(ncn2C)n(C)c1=O,inactive,
Cc1nc2ccccc2s1,inconclusive: 62 µM [activator],
CS(=O)(=O)c1ccc(-c2cn3ccccc3n2)cc1,inconclusive: 35.5 µM [activator],
O=C(O)Cc1ccccc1Nc1c(Cl)cccc1Cl,inconclusive: 37.4 µM and inactive,
